Assay results reported in PubChem BioAssay AID2100 (National Center for Advancing Translational Sciences (NCATS), 2009).
“And” between values parts separate entries of the source, which are not always exact repeats. Identical values can stand only once. Among all 300,000 compounds or so, about 1,200 (0.4%) were called active. Inconclusive results, whose numbers are uncertain, are shown with a selection of clear calls. Calls follow the shape of the dose curve; as a rule, active = well fitted inhibition curve with a large enough effect; inconclusive = small, poorly fitted or top-dose-only effect, or another doubt; inactive = no such curve, though single readings can be large or run the other way. A potency beside an inconclusive call is a rough fit, not a confirmed value.

Each compound was assayed against Lysosomal alpha-glucosidase (Homo sapiens) (UniProt P10253) (assay: qHTS Assay for Inhibitors and Activators of Human alpha-Glucosidase Cleavage of Glycogen). Details: recombinant GAA, glycogen substrate, Amplex Red glucose oxidase fluorescence; activity change, negative = inhibition: at 76.4 µM (top of the series) unless noted.
Outline: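 Natural-substrate format: glycogen cleavage by 4 nM human enzyme, glucose read by Amplex Red coupling (Ex 573, Em 610 nm). Normalized to enzyme and no-enzyme controls.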
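For activity change, negative = inhibition in this document: 0% = full enzyme reaction and -100% = no-enzyme basal signal.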
Potency is read from the fitted curve at half-maximal effect.

Compound	Potency	activity change, negative = inhibition
CCOc1cccc(CNc2ccc(O)cc2)c1OCc1ccccc1Cl	active: 6.31 µM	–
COc1ccc(-c2cn3nc(N4CCC(C(=O)Nc5cccc(OC)c5)CC4)sc3n2)cc1	–	inactive: -9.37% [at 76.3 µM]
C(=N\Nc1nc2ccccc2[nH]1)/c1cccc2nccnc12	inconclusive: 19.8 µM [inhibitor, partial curve]	–
CN(C)C(C(=O)Nc1cc(Cl)cc(Cl)c1)c1ccccc1 (stereo not given)	–	inactive: 6.78%
COc1cc(/C=N/Nc2ccc(S(N)(=O)=O)cc2[N+](=O)[O-])cc(OC)c1O	inconclusive: 15.7 µM [inhibitor, partial curve]	–
CO/N=C/c1ccc(Oc2ccc(C)cc2)nc1	inconclusive: 50.1 µM [inhibitor, single point]	–
COc1ccccc1N1CCN(/N=C\c2ccccc2)CC1	inconclusive: 35.5 µM [inhibitor, partial curve]	–
Cc1cc(NC(=O)CCC(=O)N(Cc2cccs2)C(C(=O)NC2CCCC2)c2ccncc2)no1 (stereo not given)	inconclusive: 19.8 µM [inhibitor, partial curve]	–
CCOc1ccc(Cc2nnc(SCC(=O)c3ccc(OC)cc3)o2)cc1	–	inactive: -7.6%
COc1ccc(C(=O)C2CCCN(Cc3nc4ccccc4nc3C)C2)cc1OC (stereo not given)	–	inactive: 11.6%
Cc1ccc2nsnc2c1NC(=O)Cc1ccc(Cl)cc1	inconclusive: 39.8 µM [inhibitor, single point]	–
O=S(=O)(Nc1cc(S(=O)(=O)N2CCOCC2)ccc1N1CCCC1)c1cccs1	inconclusive: 11.2 µM [inhibitor, partial curve]	–
Cc1ccc(Nc2ncnc3sc(C)c(C)c23)cc1	–	inactive: -3.03%
CC1CCCC(NS(=O)(=O)c2ccc3c(c2)OCCO3)C1C (stereo not given)	inconclusive: 63.1 µM [activator, partial curve, poor fit]	–
O=C(CSc1n[nH]c(-c2ccccc2)n1)c1ccc(O)c(O)c1	active: 10 µM	–
O=C(Nc1ccc2nn(-c3ccc(F)cc3)nc2c1)c1cccc2c(Cl)cccc12	–	inactive: -3.93% [at 76.3 µM]
CC1=C(C#N)C(=O)OC(C)(C)C1	inconclusive: 20 µM [inhibitor, partial curve]	–
CC(NC(=O)Nc1ccccc1O)(C(F)(F)F)C(F)(F)F	active: 15.8 µM	–
Cc1ccc(NC(=O)CCc2nc3ccccc3s2)c(O)c1	inconclusive: 35.5 µM [inhibitor, single point]	–
CCCc1cc(C(=O)NNC(=S)Nc2cccc(C)c2)cs1	inconclusive: 35.5 µM [inhibitor, single point]	–
CCOc1cc(/C=N/NC(=O)CCn2nc(C)cc2C)ccc1O	inconclusive: 25.1 µM [inhibitor, partial curve]	–
COc1ccc(N(CC(=O)NCc2ccc(C)cc2)S(=O)(=O)c2ccccc2[N+](=O)[O-])c(OC)c1	–	inactive: 12.6%
CN1CCc2c(sc3c2C(=O)NC(c2cccs2)N3)C1 (stereo not given)	inconclusive: 39.5 µM [activator, single point]	–

Compound	Potency	activity change, negative = inhibition
O=C(CSCc1cccc(Cl)c1)N/N=C/c1ccc(OCC(=O)N2CCCCC2)cc1	inconclusive: 44.7 µM [inhibitor, partial curve, poor fit]	–
c1coc(-c2nc3ccccn3c2Nc2ccc3c(c2)OCCO3)c1	inconclusive: 11.2 µM [inhibitor, partial curve]	–
CC(C)c1ccc(S(=O)(=O)Nc2ccc(O)c(Sc3nc4ccccc4s3)c2)cc1	inconclusive: 2.51 µM [inhibitor, full curve]	–
CCCOC(=O)c1ccc(NC(=O)c2ccoc2C)cc1	inconclusive: 39.5 µM [inhibitor, single point]	–
CCOC(=O)c1[nH]c(C)c(CN(CCc2ccccc2)C(=O)CCC(=O)O)c1C	inconclusive: 25.1 µM [inhibitor, partial curve]	–
O=c1oc2c(CN3CCOCC3)c(O)c(Cl)cc2c2c1CCCC2	inconclusive: 56.2 µM [activator, single point]	–
CC(=O)c1cccc(NC(=S)NNC(=O)c2ccc(C)c([N+](=O)[O-])c2)c1	inconclusive: 39.8 µM [inhibitor, single point]	–
CN1CC=C2C(C#N)=C(N)C(C#N)(C#N)[C@H](c3cccc(Cl)c3)C2C1 (stereo not given in full)	–	inactive: 21.3%
CCCCCCN1C=CC(=C/C=C(\C#N)C(=O)OCC)C=C1	inconclusive: 24.9 µM [inhibitor, single point]	–
C=CCc1c(C)nc(SC)nc1Nc1ccccc1	–	inactive: 1.14%
Nc1nnc(SCC(=O)c2ccc3c(c2)NC(=O)CO3)s1	–	inactive: -12.6%
Oc1ccc(Cl)cc1N=Cc1sc2ccccc2c1Cl	active: 2.82 µM	–
O=C(CC1Nc2cccc3cccc(c23)NC1=O)Nc1ccc(F)cc1 (stereo not given)	inconclusive: 7.08 µM [inhibitor, full curve] and inconclusive: 31.6 µM [inhibitor, single point]	–
C/C(=N\Nc1nc2c(s1)CCCC2)c1ccc(Cl)cc1	inconclusive: 44.7 µM [inhibitor, single point]	–
Cc1ccccc1Nc1c(-c2ccccn2)nc2ccccn12	inconclusive: 7.94 µM [inhibitor, full curve]	–
COc1ccccc1N1CC(O)=C(c2nc3ccccc3s2)C1=N	inconclusive: 1.25 µM [inhibitor, full curve]	–
COc1ccc(OC(=O)COc2ccc(C)cc2)cc1	inconclusive: 28.2 µM [inhibitor, partial curve]	–
CSc1nc(SCC(=O)NC(c2ccccc2)c2ccccc2)c2c3c(sc2n1)CN(C)CC3	inconclusive: 35.2 µM [activator, partial curve]	–
CCOCc1cnc(C)nc1NCC(=O)c1c(C)[nH]c2ccc(OC)cc12	–	inactive: -4.27%
Cc1cccc(NC(=S)N/N=C/c2cccc(O)c2)c1C	inconclusive: 25.1 µM [inhibitor, single point]	–
CC(=O)Nc1ccc(S(=O)(=O)Nc2cccc3[nH]ncc23)cc1	inconclusive: 6.31 µM [inhibitor, single point]	–
CC(=O)Oc1cccc(N2C(=O)CC(Nc3ccc(N4CCOCC4)cc3)C2=O)c1 (stereo not given)	active: 35.5 µM	–
